Some of the results follow.

Binding signal data for 22 molecules are collected here from paper PMC12136788.

Sequences and labels used below:
B1: chr12:24812190:24812291:-|3pUTR|ENSG00000060982|msi1|total|mutant (ssRNA)
RNA: GGGAGUUCUACAGUCCGACGAUCUUUACUAUCUCCUAUCCUGACCGGUGGAAGGUUUACUGAAUUGGAAAUUGGUUGACUAUCCGUUUUUAACUAAAAUGUGCAAUAACACAUUGCAGUUUCCUCAAACCCGUUUCCUAUGAUCAACAGAGGAUUGAGCAUCA
B2: chr6:136278143:136278257:-|CDS|ENSG00000029363|unk|FALSE|unique (ssRNA)
RNA: GGGAGUUCUACAGUCCGACGAUCACAUCCGGUGAUAUUUGGCCUGGCCUUUCAGCUUAUGAUAAUAGUCCUAGAUCACCCCAUAGUCCUUCACCUAUUGCUACACCACCUAGUCAGAGUUCAUCUUGCUCUGAUGCUCCCAUGCAACAGAGGAUUGAGCAUCA
B3: chr1:94529602:94529703:-|3pUTR|ENSG00000117525|msi1|total|mutant (ssRNA)
RNA: GGGAGUUCUACAGUCCGACGAUCUGGAAGGAAAUUGGGUGCAUUUCCCGGACUUUUCUAACAUAUGUCUAUAAUACCGUGUUCCGGUUCUUUUUUUUUUCAGGAAUACAUUUGGAAAUUCAAAACAAUUGGCAAACUUUGUAUCAACAGAGGAUUGAGCAUCA
B4: chr6:122456482:122456612:-|CDS|ENSG00000111897|unk|total|mutant (ssRNA)
RNA: GGGAGUUCUACAGUCCGACGAUCUGCUUUGGUUUGGCUAUGUUCUAUCUUCUUCUCUCUUUACUAAUGAUCAAAGUGAAGAGCCGCAGUGAUCCCCGAGCUGCAGUGCACAAUGGGUAAGUUUUUAAAUAAGCUUCAAUAUAACAACAGAGGAUUGAGCAUCA
B5: chr4:140550230:140550341:+|CDS|ENSG00000179387|unk|total|mutant (ssRNA)
RNA: GGGAGUUCUACAGUCCGACGAUCGAAUUUGACAAGUUUUGGUUUGAAGAAGAACCAGAAAGCAUUAUGUAUUUCAAUUUGUACCGAGAGAAGUUUCAUGAAAAGAUUAAAGGACUUUUACUGGAUUGUAAUGCCGCACUUACUCAACAGAGGAUUGAGCAUCA
B6: chrX:131089436:131089558:+|3pUTR|ENSG00000147256|unk|FALSE|unique (ssRNA)
RNA: GGGAGUUCUACAGUCCGACGAUCGGGAAACCUCAAGUGUAGGUCUAAUUAGUGUUUCUGGGAUCCAAAGUUAGAGGAAAAUUUAGAUUUUAUUGCCUGGAUCUGCUUUAAAGACAAUUGGUGUUUACACCCUCUUGUCAGCAACAACAGAGGAUUGAGCAUCA
B7: ENSG00000136451:be:win_51|CDS|ENSG00000136451|bound_else_gene|NA|bound_elsewhere_windowed (ssRNA)
RNA: GGGAGUUCUACAGUCCGACGAUCUCACCAACAGCAGGCAGCACAGAACAGCUUGCUGCCCCUCCUGAGCUCUGCCGUGGAGCCCCCUGAUCAGAAACCAUUGCUUCCAAUACCAAUAACUCAGAAACCUCAGGGUGCACCAGACAACAGAGGAUUGAGCAUCA
B8: ENSG00000198589:be:win_751|CDS|ENSG00000198589|bound_else_gene|NA|bound_elsewhere_windowed (ssRNA)
RNA: GGGAGUUCUACAGUCCGACGAUCAAACCAUAUUUGUAUUGUUUCAGAACCAGCAAAGGUCUUGGCUAUUCUGCUCAUUUUGUUGGAGGCUGUUUGAUUGUAACAUCAAUAAAGUCAAAAGGAAAAGGCUUUCAACACUGUGUGCAACAGAGGAUUGAGCAUCA
B9: chr4:186618492:186618593:-|CDS|ENSG00000083857|msi1|FALSE|unique (ssRNA)
RNA: GGGAGUUCUACAGUCCGACGAUCGUAAUCACUACAAAGGAGAGCCUCAUUGGCUUGGAAAAUGAAUUCUUCACUUUCUUUGUUAGAGCUGUGGAUAAUGGGUCUCCAUCAAAAGAAUCUGUUGUUCUUGUCUAUGUUAAAAUCCAACAGAGGAUUGAGCAUCA
B10: chr3:9757346:9757621:-|three_prime_utr|ENSG00000134072|control|control|control (ssRNA)
RNA: GGGAGUUCUACAGUCCGACGAUCGUCGAGACUGCUGCGUGGAGCCGGGCACAGAACUGUCCCCCACACUGCCCCACCAGCUCUAGGGCCCUGGACCUCGGGUCAUGAUCCUCUGCGUGGGAGGGCUUGGGGGCAGCCUGCUCCCAACAGAGGAUUGAGCAUCA
B11: chr12:48147896:48148005:-|3pUTR|ENSG00000177981|unk|total|mutant (ssRNA)
RNA: GGGAGUUCUACAGUCCGACGAUCCUGCUUCCGUGAACGAUACUCUUUCAUUUUUCUAAAUCCGAUCAAGUUGUUAUUGAUUUCCGAUGACUUGUAUGCAAAUUUGAAAAACUUUUUUUUUUAAAGCUGAUUGGGAACUACAAACAACAGAGGAUUGAGCAUCA
B12: chr6:122453778:122453910:-|CDS|ENSG00000111897|unk|total|mutant (ssRNA)
RNA: GGGAGUUCUACAGUCCGACGAUCCCUUUCAGUGUGGUUUUAUGCCGGCAUGGCAGGUGCCUUUUGUUUCAUCCUCAUACAACCCGUCUUACUUAUUGAUUUUGCACAUUCAUGGAAUGAAUCGUGGGUUGAAAAAAUGGAAGACAACAGAGGAUUGAGCAUCA
B13: ENSG00000135709:stop:overlap|stop_codon|ENSG00000135709|stop_codon|NA|stop_codon (ssRNA)
RNA: GGGAGUUCUACAGUCCGACGAUCACCUGGAUGAAGAGCAAUACAAGCUGCUUAGUGACCACAUUGAGCAAAUGGCCACUGAGUAGGCCCCAGAGGUCGCACUCCGCAGGAGGACUGAGGCCAUGUGCCAUUCUCCCGGGCCCACAACAGAGGAUUGAGCAUCA
B14: chr1:113590523:113590624:+|CDS|ENSG00000081026|unk|total|mutant (ssRNA)
RNA: GGGAGUUCUACAGUCCGACGAUCUCAUCUGACUGGAUGAAGACUGUUCCAAGUUACAACCAAACAAACCGCUCCAUGGACUUCCGAAAUUAUAUGAUGAGAGAUGAGACUCUGGAACCACUGCCCAAAAACUGGGAAAUGGCCCAACAGAGGAUUGAGCAUCA
B15: chr1:86742159:86742388:+|CDS|ENSG00000097033|unk|total|mutant (ssRNA)
RNA: GGGAGUUCUACAGUCCGACGAUCUGUACCAUCAGUUUUACCAAAUGCGAUUGGUUCUUCUGCCAUGGCUUCAACAAGUGGCCCCGUAAUCACCUCUCCUUCCAACCUCAGUGACCUUAAGGAGUGCCGUGGCAGCAGAAAGGCCAACAGAGGAUUGAGCAUCA
B16: chr15:89832191:89832292:-|3pUTR|ENSG00000157823|msi1|total|mutant (ssRNA)
RNA: GGGAGUUCUACAGUCCGACGAUCCCCGGCCGCUGGAACCACAGGCACGCAACCACCACUCCUGGCCCGUUUUAUUUUUUCCGCCGAAUAAGGUCUCACUAUGUUGCACAGGCUGGUCUCUAACUCCUUACCUCAAGCCAUCCUCAACAGAGGAUUGAGCAUCA
B17: chr8:143040838:143043334:-|three_prime_utr|ENSG00000291309|control|control|control (ssRNA)
RNA: GGGAGUUCUACAGUCCGACGAUCACCACUUUUUUCAGAGCUGGGCCUCAGAGACCAGGCCCCACCACUGGCUGCUUGGGACCUAGGGUCAUAGAGAAACCGUGGCCCAGGGCGGGAGUCCCCAGCUCCAUCCAGCUUGCCACUCAACAGAGGAUUGAGCAUCA
B18: chr15:41517175:41517691:-|three_prime_utr|ENSG00000103932|control|control|control (ssRNA)
RNA: GGGAGUUCUACAGUCCGACGAUCGUCAGCACUACCUCCAGAGACUGACUUCAACAGUGCUCCAAAAUGGGGUAUCAGAGACCUAGGAUAGUUGAUAUAGAUGGAAAGAUGGGUACGUUGUCCUGUAUCCAGCCUUUCAACAGACAACAGAGGAUUGAGCAUCA
B19: chr11:20121310:20121411:+|3pUTR|ENSG00000166833|msi1|total|mutant (ssRNA)
RNA: GGGAGUUCUACAGUCCGACGAUCAUUGUAACACCGAAAUUGUAAAUAAUUGAUUAAAGUGCUGCAUUUUGAUGAAUUUUUUCCCGCCAUUUUUAAAGAGAAAACCCGGAAUUGAGUAUUUUGUGUACGGUAUGUUUCCAUCCUCAACAGAGGAUUGAGCAUCA
B20: chr22:45344062:45344555:-|three_prime_utr|ENSG00000077935|control|control|control (ssRNA)
RNA: GGGAGUUCUACAGUCCGACGAUCUCCACAGGAGACUUCUGGAGCAAGCAGGACCAGCCUGGUGCACCCUUUAAGAGAAACCUUAGUCGUUCUAGCCAAAGAGGCUGUGGCUCACUUUAGUUGAGUGUUCAGACCUCAUUCUAGCAACAGAGGAUUGAGCAUCA
B21: chr22:46256563:46263322:-|CDS|ENSG00000130943|control|control|control (ssRNA)
RNA: GGGAGUUCUACAGUCCGACGAUCAAUUCGGUUUUACUUGUCGAACCCAGAAGACUUCAUUCCCUUUCAUGCAGUUUCUCAGGUAGAUCACAUUAUGAGGAUAAUUUUGGGUUUCCUGUUAUUUCUGACAAUUUUGAAGACCCUCAACAGAGGAUUGAGCAUCA
B22: ENSG00000107863:be:win_1001|CDS|ENSG00000107863|bound_else_gene|NA|bound_elsewhere_windowed (ssRNA)
RNA: GGGAGUUCUACAGUCCGACGAUCCAGGCUCCAGAUCACUGGAACCUUCUGGAAUUUUACUUAAGUCUGGAAAUUACAGUGGACAUUCUGAUGGAAUCUCAAGCAGCAGAUCUCAAGCUGUGGAGGCUCCCUCUGUAUCUGUUACAACAGAGGAUUGAGCAUCA

This test has as its target MSI1 full-length (mouse, UniProt Q61474 1-362). Kind of test: nsRBNS (natural sequence RNA bind-n-seq); RBNS binding buffer (assumed for nsRBNS): 25 mM Tris pH 7.5, 150 mM KCl, 3 mM MgCl2, 0.01% Triton X-100, 500 ug/ml BSA, 20 U/ml SUPERase-In, 4 C; UNK is unkempt and MSI1 is Musashi-1; names of the RNAs are library labels; protein concentration not given here; high values mean tight binding.
Sequence of UniProt Q61474 (Q61474 whole entry): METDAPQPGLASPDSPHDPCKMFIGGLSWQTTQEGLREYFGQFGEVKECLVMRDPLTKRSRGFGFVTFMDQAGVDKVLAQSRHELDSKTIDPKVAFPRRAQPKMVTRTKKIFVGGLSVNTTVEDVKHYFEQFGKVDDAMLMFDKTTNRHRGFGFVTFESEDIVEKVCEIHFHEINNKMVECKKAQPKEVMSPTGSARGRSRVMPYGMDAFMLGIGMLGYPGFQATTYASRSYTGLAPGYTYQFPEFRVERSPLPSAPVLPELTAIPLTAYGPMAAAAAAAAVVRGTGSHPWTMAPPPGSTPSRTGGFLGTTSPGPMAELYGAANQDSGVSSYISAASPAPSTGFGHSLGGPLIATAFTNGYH
As to B1, the binding signal was found to be 0.209 enrichment R. In the case of B2 it was 2.36 enrichment R; in that of B3, 0.407 enrichment R; in that of B4, 0.389 enrichment R. In the case of B5 it was 0.361 enrichment R.

The molecule B6 gave a binding signal of 20.8 enrichment R.

For B7, the binding signal was found to be 0.553 enrichment R.

As to B8, the binding signal is 0.279 enrichment R.

B9 registered a binding signal of 0.429 enrichment R. B10: the binding signal came out at 0.642 enrichment R. As to B11, the binding signal was found to be 0.282 enrichment R. In turn, B12 displayed a binding signal of 0.257 enrichment R.

In turn, B13 showed a binding signal of 0.455 enrichment R. With B14, the binding signal came to 0.335 enrichment R.

For B15, the binding signal turned out to be 0.35 enrichment R. For B16, the binding signal was 0.746 enrichment R.

The molecule B17 yielded a binding signal of 0.475 enrichment R. In turn, B18 gave a binding signal of 2.92 enrichment R. The value for B19 was 0.869 enrichment R; that for B20 was 1.32 enrichment R. In the case of B21 it was 0.369 enrichment R; in that of B22, 0.493 enrichment R.
